In all, about 220,000 compounds went through this assay and about 5,700 (2.6%) were called active. The inconclusive results got no clear call from the source; some entries with a clear call stand among them for comparison. Calls come from the whole dose curve; as a rule, active = well fitted inhibition curve with a large enough effect; inconclusive = small, poorly fitted or top-dose-only effect; inactive = no such curve, though single readings can be large or run the other way. Where the call is inconclusive, the potency comes from a doubtful curve fit.
Target: Lysine-specific demethylase 5B (Homo sapiens) (UniProt Q9UGL1)
Chain of UniProt Q9UGL1 (Q9UGL1 whole entry, looked up): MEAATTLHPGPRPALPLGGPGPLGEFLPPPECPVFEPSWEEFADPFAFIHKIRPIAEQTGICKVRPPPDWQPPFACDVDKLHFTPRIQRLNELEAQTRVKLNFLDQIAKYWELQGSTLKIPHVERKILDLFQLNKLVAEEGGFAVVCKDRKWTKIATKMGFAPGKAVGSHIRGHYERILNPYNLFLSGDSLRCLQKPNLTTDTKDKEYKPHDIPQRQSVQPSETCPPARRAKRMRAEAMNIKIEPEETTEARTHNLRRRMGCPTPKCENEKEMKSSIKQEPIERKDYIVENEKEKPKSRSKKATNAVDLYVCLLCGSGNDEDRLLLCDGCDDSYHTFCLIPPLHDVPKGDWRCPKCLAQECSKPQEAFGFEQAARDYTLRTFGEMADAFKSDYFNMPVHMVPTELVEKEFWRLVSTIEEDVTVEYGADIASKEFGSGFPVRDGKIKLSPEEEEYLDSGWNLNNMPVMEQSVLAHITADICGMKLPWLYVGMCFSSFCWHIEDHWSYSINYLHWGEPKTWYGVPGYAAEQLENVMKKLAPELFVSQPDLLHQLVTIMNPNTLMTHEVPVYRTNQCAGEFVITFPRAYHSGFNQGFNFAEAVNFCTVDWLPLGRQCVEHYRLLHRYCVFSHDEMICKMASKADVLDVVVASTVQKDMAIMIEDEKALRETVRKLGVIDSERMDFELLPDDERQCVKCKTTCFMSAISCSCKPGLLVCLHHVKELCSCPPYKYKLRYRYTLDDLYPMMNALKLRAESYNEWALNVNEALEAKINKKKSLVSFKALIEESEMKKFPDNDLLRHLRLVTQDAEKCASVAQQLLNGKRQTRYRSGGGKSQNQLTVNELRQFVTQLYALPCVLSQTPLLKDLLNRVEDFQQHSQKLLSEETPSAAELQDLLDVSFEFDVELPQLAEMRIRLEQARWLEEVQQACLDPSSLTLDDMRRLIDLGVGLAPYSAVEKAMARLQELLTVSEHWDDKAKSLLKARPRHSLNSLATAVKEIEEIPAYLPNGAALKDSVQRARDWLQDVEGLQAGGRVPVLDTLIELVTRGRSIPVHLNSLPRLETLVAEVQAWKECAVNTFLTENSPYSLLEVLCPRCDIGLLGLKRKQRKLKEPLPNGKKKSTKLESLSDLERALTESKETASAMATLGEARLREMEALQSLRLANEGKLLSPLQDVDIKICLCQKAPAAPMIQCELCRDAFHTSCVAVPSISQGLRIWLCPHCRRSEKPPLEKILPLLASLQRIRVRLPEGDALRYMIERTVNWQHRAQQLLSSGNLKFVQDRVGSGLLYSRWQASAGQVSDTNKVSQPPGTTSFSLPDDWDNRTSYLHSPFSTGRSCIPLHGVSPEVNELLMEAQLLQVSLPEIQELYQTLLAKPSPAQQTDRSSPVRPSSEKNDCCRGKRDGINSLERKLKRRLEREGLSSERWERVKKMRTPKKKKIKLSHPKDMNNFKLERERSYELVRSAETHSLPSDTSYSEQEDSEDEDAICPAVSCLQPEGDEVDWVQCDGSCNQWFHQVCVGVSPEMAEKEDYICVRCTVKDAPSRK
Assay: Primary screen for KDM5B Histone Demethylases FDH-coupled qHTS; note: nearly all actives have a fitted effect of over 70% in size
Details: FDH-coupled NADH fluorescence (FDH is formaldehyde dehydrogenase); series mostly up to 57.7 µM
Procedure, shortened: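 Coupled FDH/NAD⁺ fluorescence readout. KDM5BΔAP 200 nM final; compound titration, 10 min RT preincubation; substrate mix 12.5 µM H3K4me3, 25 µM 2-OG, 50 µM Fe(II), 100 µM ascorbate, 0.25 mM NAD⁺, 0.25 U/mL FDH; ΔRFU over 30 min.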
Potency is the fitted concentration of half-maximal effect; tags give direction and shape of the fitted curve.

| Structure (SMILES) | Potency |
| --- | --- |
| O=C(CN1CCOC(c2ccc(F)cc2)C1)NCc1ccccn1 (stereo not given) | inconclusive: 0.708 µM [inhibitor, single point] |
| CCC(C(=O)Nc1ccc(C(C)C)cc1)n1nc(C)n2c(cc3cc(C)ccc32)c1=O (stereo not given) | inconclusive: 15.8 µM [inhibitor, partial curve, poor fit] |
| CN(Cc1cccnc1)C(=O)CCC[C@H]1NC[C@@H]2C[C@H]1CN(Cc1ccccc1)C2 | inconclusive: 17.8 µM [inhibitor, partial curve, poor fit] |
| COc1ccc2c(c1)c(CN1CCC3(CC1)CC(C(=O)N1CCOCC1)N(C)C3)cn2C (stereo not given) | inconclusive: 31.6 µM [inhibitor, partial curve, poor fit] |
| CN(Cc1ccsc1)C(=O)CCc1ccccc1 | inactive |
| CCNC(=O)CN1CCN(C(=O)[C@@H](N)Cc2cnc[nH]2)CC1 | inconclusive: 1.78 µM [inhibitor, full curve] |
| CC(C)(C)c1nnc2n1C(C(=O)N1CCN(c3ncccn3)CC1)CC2 (stereo not given) | inconclusive: 89.1 µM [inhibitor, single point] |
| COc1ccc2cnn(CC(=O)Nc3cccc(Cl)c3Cl)c(=O)c2c1OC | inactive |
| CC1CCN(C(=O)C(=O)N2CCN(c3nc(-c4ccco4)c4c(c3C#N)CCCC4)CC2)CC1 | inconclusive: 31.6 µM [inhibitor, partial curve, poor fit] |
| CN(C)C(=O)c1ccccc1NS(=O)(=O)c1ccc(Cl)cc1 | inactive |
| COC(=O)N1CCn2cc(C(=O)Nc3ccc(Cl)cc3Cl)nc2C1 | inconclusive: 44.7 µM [inhibitor, partial curve, poor fit] |
| CCOC(=O)c1ccc(NC2(c3ccccc3)C(=O)c3ccccc3C2=O)cc1 | inconclusive: 28.2 µM [inhibitor, single point] |
| O=C1NC(=O)C(CCC(=O)N2CCCN(Cc3ccccn3)CC2)N1 (stereo not given) | inconclusive: 10 µM [inhibitor, partial curve, poor fit] |
| COc1ccccc1C(=O)Nc1nnc(S(=O)(=O)N2CCN(c3ccc(F)cc3)CC2)s1 | inconclusive: 39.8 µM [inhibitor, single point] |
| COc1ccc(CNC(=O)Cn2ccn3nc(-c4ccccc4)c(CO)c3c2=O)cc1OC | inconclusive: 20 µM [inhibitor, partial curve] |
| COc1ccc(-c2cc3ncc(C(=O)c4cc(Cl)ccc4O)cn3n2)cc1 | inconclusive: 12.6 µM [inhibitor, partial curve, poor fit] |
| Cc1ccc(C(=O)NCCn2ccn3nc(-c4ccc(F)cc4)cc3c2=O)s1 | inactive |
| COc1ccccc1CN1CCNc2cnc(OCc3cccnc3)cc2C1 | inconclusive: 31.6 µM [inhibitor, single point] |
| CCOC(=O)C1=C(Nc2ccccc2)O/C(=C\c2ccc(OC(F)F)cc2OC(F)F)C1=O | inconclusive: 39.8 µM [inhibitor, single point] |
| COc1ccc(-c2cc(-c3ccc(OC)c(OC)c3)cn3cncc23)cc1 | inconclusive: 35.5 µM [inhibitor, partial curve, poor fit] |

| Structure (SMILES) | Potency |
| --- | --- |
| Cc1ccc(Nc2c(-c3ccc(N4CCOCC4)cc3)nc3cccc(C)n23)cc1 | inconclusive: 5.62 µM [inhibitor, partial curve, poor fit] |
| COC(=O)Cc1cc(C)cc2c(=O)cc(-c3ccoc3)oc12 | inconclusive: 39.8 µM [inhibitor, partial curve, poor fit] |
| CCc1ccc(NC(=O)C2CCCN(S(=O)(=O)c3cccc4nsnc34)C2)cc1 (stereo not given) | inconclusive: 3.16 µM [inhibitor, partial curve, poor fit] |
| Cc1c(C)n(Cc2ccncc2)c2ncn3nc(Cc4ccccc4)nc3c12 | inconclusive: 22.4 µM [inhibitor, partial curve, poor fit] |
| O=C(NCC1(N2CCOCC2)CCSC1)Nc1ccccc1 (stereo not given) | inactive |
| c1ccc(C2CNC2)nc1 | inconclusive: 100 µM [inhibitor, partial curve] |
| O=C(c1ccccn1)N1CCCC2(C1)Nc1cccnc1NC2=NC1CCCC1 (stereo not given) | inconclusive: 28.2 µM [inhibitor, partial curve, poor fit] |
| CC(C)c1cccc(C(C)C)c1NC(=O)CCn1cnc2c1c(=O)n(C)c(=O)n2C | inactive |
| O=C(Cn1c(=O)c2c(n1Cc1ccccc1)CN(Cc1ccccc1)CC2)NCc1ccc2c(c1)OCO2 | inconclusive: 31.6 µM [inhibitor, single point] |
| Cc1[nH]c(C(=O)NCCc2ccc(F)cc2)c(C)c1C(=O)OC(C)C | inactive |
| Cc1cccc(NC(=O)N2CC(Oc3ccccc3-c3nc(-c4ccccc4)no3)C2)c1 | inconclusive: 22.4 µM [inhibitor, partial curve, poor fit] |
| Cc1cn2nc(C(=O)N3CCSCC3)cc2c(N(C)Cc2ccccc2)n1 | inconclusive: 28.2 µM [inhibitor, partial curve, poor fit] |
| O=C(NCc1ccc(Cl)cc1)c1ccc2c(c1)NC(=O)C(CS(=O)(=O)Cc1ccc(F)cc1Cl)N2 (stereo not given) | inconclusive: 28.2 µM [inhibitor, partial curve, poor fit] |
| CN(Cc1ccccc1C(F)(F)F)C(=O)c1cccc(Cl)c1 | inactive |
| COc1ccc(Nc2nnc(-c3ccc(C)c(S(=O)(=O)NCc4nc5ccccc5[nH]4)c3)c3ccccc23)cc1 | inactive |
| CCC(C)Sc1oc(-c2ccco2)nc1S(=O)(=O)c1ccc(Cl)cc1 (stereo not given) | inconclusive: 35.5 µM [inhibitor, partial curve, poor fit] |
| CC(C)NC(=O)N1CC[C@@H](CC(=O)O)[C@@H](CC2=NCCc3ccc(C(C)(C)C)cc32)C1 | inconclusive: 56.2 µM [inhibitor, single point] |
| CN(CC1Cc2ccccc2O1)C(=O)c1cn(Cc2ccccc2F)nn1 (stereo not given) | inactive |
| Cc1ncc(-c2ccc(S(=O)(=O)Nc3ccc(Br)cc3F)cc2)o1 | inactive |
| COc1ccc(-c2cc(C(=O)NC3CCNCC3)c3c(C)nn(-c4ccccc4)c3n2)cc1 | active: 79.4 µM |

Reference: PubChem BioAssay AID1347165 (National Center for Advancing Translational Sciences (NCATS), 2019)
